Results on 88 compounds are retold here after paper PMC4336329 (PLoS ONE, 2015).

In all, about 310,000 compounds went through this assay and about 14,000 (4.5%) showed an effect of 50% or more. The effect is printed as a negative number. The list shows a part of the results.
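Note: peak tail current of the secondary pulse compared with the same well before compound.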

The target of the assay is human ether-à-go-go-related gene (hERG) potassium channel (human, UniProt Q12809). Nature of the assay: primary screen, population patch clamp on CHO cells stably expressing hERG.
Chain of human ether-à-go-go-related gene (hERG) potassium channel (Q12809 whole entry, looked up): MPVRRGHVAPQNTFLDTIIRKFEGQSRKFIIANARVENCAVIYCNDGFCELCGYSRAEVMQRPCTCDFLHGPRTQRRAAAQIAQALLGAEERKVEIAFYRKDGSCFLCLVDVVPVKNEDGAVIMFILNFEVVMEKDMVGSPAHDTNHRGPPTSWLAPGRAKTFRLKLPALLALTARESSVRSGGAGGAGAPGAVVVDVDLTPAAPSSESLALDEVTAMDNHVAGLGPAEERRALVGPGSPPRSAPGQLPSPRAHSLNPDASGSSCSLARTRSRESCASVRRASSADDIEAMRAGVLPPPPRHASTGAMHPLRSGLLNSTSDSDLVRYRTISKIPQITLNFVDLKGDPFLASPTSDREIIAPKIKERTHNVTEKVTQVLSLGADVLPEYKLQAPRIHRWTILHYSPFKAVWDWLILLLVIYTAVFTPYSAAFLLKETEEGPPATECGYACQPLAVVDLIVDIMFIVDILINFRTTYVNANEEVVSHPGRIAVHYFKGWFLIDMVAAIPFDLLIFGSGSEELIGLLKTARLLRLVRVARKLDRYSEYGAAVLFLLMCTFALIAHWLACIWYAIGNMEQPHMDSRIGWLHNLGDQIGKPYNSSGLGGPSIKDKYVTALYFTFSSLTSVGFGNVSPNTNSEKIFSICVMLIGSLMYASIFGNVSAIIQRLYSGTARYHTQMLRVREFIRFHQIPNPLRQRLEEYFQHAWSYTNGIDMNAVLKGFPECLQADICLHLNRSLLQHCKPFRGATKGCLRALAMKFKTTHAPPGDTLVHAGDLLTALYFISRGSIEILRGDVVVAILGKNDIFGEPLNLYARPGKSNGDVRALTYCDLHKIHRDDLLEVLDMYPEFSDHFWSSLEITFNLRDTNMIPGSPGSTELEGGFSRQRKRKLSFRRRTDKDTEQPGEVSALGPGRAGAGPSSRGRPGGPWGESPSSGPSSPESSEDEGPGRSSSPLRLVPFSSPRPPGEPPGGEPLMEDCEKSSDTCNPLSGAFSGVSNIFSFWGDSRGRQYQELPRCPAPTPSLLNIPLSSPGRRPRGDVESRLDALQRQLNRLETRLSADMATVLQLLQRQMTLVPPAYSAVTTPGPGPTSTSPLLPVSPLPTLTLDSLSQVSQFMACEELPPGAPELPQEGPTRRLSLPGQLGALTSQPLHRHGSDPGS
On to `CC[C@@H]1C(=O)OC[C@@H]1CC1=CN=C[NH+]1C.O=[N+]([O-])[O-]`, for which the “hERG current change (%, negative = inhibition) at 10uM” value is on record as 15.7%. Next, `COc1ccc(OCC(=O)Nc2ccc(N3CCN(C(=O)c4ccccc4C)CC3)cc2)cc1`: 6.32%; `CN(C)/C=N/c1[nH]ncc1C#N`: 16%. On to `O=[N+]([O-])/C(C(Cl)=C(Cl)Cl)=C(\Sc1ccccc1)N1CCCCC1`, for which the “hERG current change (%, negative = inhibition) at 10uM” value was -0.233%. In the case of `COc1ccc2c(c1)C1NC(=S)NC(C)(O2)C1C(=O)Nc1ccc(C)cc1C` (stereo not shown), the “hERG current change (%, negative = inhibition) at 10uM” value was found to be 1.01%. The figure for `COc1cccc(CN(C)C(=O)CSC(C)C(=O)Nc2cc(C)on2)c1OC` (stereo not shown) is 5.86%; for `CN1CCN(c2ccccc2NC(=O)c2ccc(OCc3ccccc3)cc2)CC1` it is -41.9%; for `COc1ccc(C(=O)NCC(=O)Nc2ccc(-c3ccccc3)cc2)cc1` it is 23%. The figure for `CC(C)NC(=O)C1CCN(C2CCN(C(=O)C3=CCCC3)CC2)CC1` is 2.17%; for `Cc1cccn2cc(-c3ccc(F)cc3)cc12` it is 7.17%; for `CCN(CC(=O)Nc1c(F)cccc1F)C(=O)CN(C)S(=O)(=O)c1ccc(F)cc1` it is -7.19%. As for `CN(C)CCN(C(=O)C1=COCCO1)c1nc2ccc(F)cc2s1.Cl`, the “hERG current change (%, negative = inhibition) at 10uM” value is recorded as -73%. Regarding `CCCCCCC(=O)N(O)C1CC(=O)N(c2ccc(F)cc2)C1=O` (stereo not shown), the “hERG current change (%, negative = inhibition) at 10uM” value stood at 18.1%.

`CN(C)c1cc(N)c2c(n1)CCC2.O=C(O)c1cncc(O)c1`: the “hERG current change (%, negative = inhibition) at 10uM” value is -10.8%. On to `COc1cccc(C(=O)Nc2nnc(SCC(=O)Nc3ccc(NC(C)=O)cc3)s2)c1`, for which the “hERG current change (%, negative = inhibition) at 10uM” value is on record as -36.6%. Next, `COc1ccc(-n2nnnc2SCC(=O)NC(=O)Nc2ccc3c(c2)OCCO3)cc1`: 3.64%; `Cc1occc1-c1nnc(SCC(=O)NC2CC2)n1C`: 2.21%; `CCC(Oc1ccccc1)C(=O)Nc1ccsc1C(=O)OC` (stereo not shown): -0.992%.

Regarding `Cc1ccc(C(=O)OCC(=O)Nc2cc(C(C)(C)C)nn2-c2ccccc2)c(O)c1`, the “hERG current change (%, negative = inhibition) at 10uM” value is -8.07%. Regarding `Cc1nnc2n1NC(c1ccc(Cl)cc1)C(C(=O)N1CCC(C)CC1)S2` (stereo not shown), the “hERG current change (%, negative = inhibition) at 10uM” value was 8.16%. For `CN(Cc1c(C(=O)N/N=C/c2cccc(O)c2)nnn1-c1nonc1N)C1CCCCC1`, the “hERG current change (%, negative = inhibition) at 10uM” value was -2.25%. Turning to `O=C(N/N=C/C1CC=CCC1)c1ccccc1O` (stereo not shown), the “hERG current change (%, negative = inhibition) at 10uM” value was 0.891%. For the compound `CC(C)CCN(C(=O)CNC(=O)c1cccs1)C(C(=O)NC1CCCCC1)c1cccnc1` (stereo not shown), the “hERG current change (%, negative = inhibition) at 10uM” value is listed as -36.4%. Take `COC(=O)C(NC(=O)c1ccccc1)=C1CCCCC1`: the “hERG current change (%, negative = inhibition) at 10uM” value turned out to be 15%.

On to `COCc1ccc(CN2CCCC(C(=O)Nc3ccccc3-c3ccc(OC)cc3)C2)o1` (stereo not shown), for which the “hERG current change (%, negative = inhibition) at 10uM” value is -21.3%.

As to `COc1ccc(NC(=O)CNC(=O)Cn2cnc3sc(C)c(C)c3c2=O)cc1OC`, the “hERG current change (%, negative = inhibition) at 10uM” value is 4.39%.

As to `C=CCn1c(O)c(N=NC(=O)CNC(=O)c2ccco2)c2ccccc21`, the “hERG current change (%, negative = inhibition) at 10uM” value is -4.55%. The figure for `O=C(O)CC12CC3CC(C1)CC(n1ncc(NCC4CCCO4)c(Cl)c1=O)(C3)C2` (stereo not shown) is 4.51%.

Turning to `O=C1CCC(C(=O)OCc2ccccc2)N1` (stereo not shown), the “hERG current change (%, negative = inhibition) at 10uM” value came out at 10.5%. Next, `O=C1COc2ccc(C(=O)COC(=O)CCc3ccc(S(=O)(=O)N4CCOCC4)cc3)cc2N1`: -33.2%; `CCOC(=O)c1ccc(N2C(=O)C(O)=C(C(C)=O)C2c2ccccc2)cc1` (stereo not shown): 12%; `CCCCC(CCCCl)C(=O)Nc1ccccc1` (stereo not shown): 19%. Next, `O=C(CN1CCN(c2ccccc2O)CC1)NNC(=O)c1ccc(Cl)cc1`: -18.9%; `CCOc1ccc(-c2cc(C)[n+](CCN(CC)CC)c(-c3ccc(OCC)cc3)c2)cc1.[O-][Cl+3]([O-])([O-])[O-]`: -79.3%.

`COC(=O)c1ccccc1NC(=O)C(=O)NCc1ccncc1`: the “hERG current change (%, negative = inhibition) at 10uM” value is given as -6.14%. Next, `Nc1ccccc1SCC(O)Cn1ccc2ccccc21` (stereo not shown): -4.33%; `CC(=O)N1N=C(c2ccc(Br)cc2)OC1(C)CC(=O)Nc1ccccc1` (stereo not shown): -1.01%.

As to `Cc1ccc(-c2nc(COC(=O)C3=NN(c4ccccc4)C(=O)CC3)cs2)cc1`, the “hERG current change (%, negative = inhibition) at 10uM” value was -32.2%. As for `CN(C)c1cc(NC(=O)CNC(C)(C)CC(C)(C)C)c2ccccc2n1.O=C(O)C(=O)O`, the “hERG current change (%, negative = inhibition) at 10uM” value is -69.9%. Consider `O=[N+]([O-])c1cccc(-c2nnc3n2CCCCC3)c1`, for which the “hERG current change (%, negative = inhibition) at 10uM” value was determined as 24.7%.

As for `CC(=O)/C(=N/Nc1ccccc1)N1CCOCC1`, the “hERG current change (%, negative = inhibition) at 10uM” value was -13.8%.

As to `CCOc1ccccc1N1CCN(C(=O)CC(C)C)CC1`, the “hERG current change (%, negative = inhibition) at 10uM” value was 4.57%. Take `CCn1cc(C(=O)N2CCCC(CO)(Cc3ccccc3C)C2)cn1` (stereo not shown): the “hERG current change (%, negative = inhibition) at 10uM” value was determined as 11.7%. Take `O=C(NCCc1ccccc1)c1c(F)c(F)c(F)c(F)c1F`: the “hERG current change (%, negative = inhibition) at 10uM” value is listed as -9.42%. For the compound `COc1ccc(C(=O)NC(=S)Nc2ccccc2N2CCN(S(C)(=O)=O)CC2)cc1OC`, the “hERG current change (%, negative = inhibition) at 10uM” value is given as -5.71%. On to `COC(=O)c1cc(S(=O)(=O)N2CCN(c3ccc(C(C)=O)cc3)CC2)c[nH]1`, for which the “hERG current change (%, negative = inhibition) at 10uM” value is given as 7.76%. The figure for `O=C(O)CCC(=O)Nc1ccc(-c2csc(Nc3cccc4ccccc34)n2)cc1` is 8.77%; for `CC(C)N(C)C1CCN(S(=O)(=O)c2ccc(-c3ccc(=O)[nH]n3)s2)CC1` it is -7.84%; for `O=C(Nc1csc([N+](=O)[O-])c1)Nc1ccccc1Cl` it is 20%. The figure for `Cc1cccc(/C=N/n2c(-c3ccncc3)n[nH]c2=S)c1` is 13.1%. For the compound `Cc1ccc(S(=O)(=O)c2cc3ccccc3oc2=Nc2ccc3c(c2)OCCO3)cc1`, the “hERG current change (%, negative = inhibition) at 10uM” value was determined as 6.71%. On to `Cc1nc2ncnn2c(N2CCCC(C(=O)Nc3ccc4c(c3)CCC4)C2)c1C` (stereo not shown), for which the “hERG current change (%, negative = inhibition) at 10uM” value is on record as -53%. On to `CCC(=O)Nc1cc(C(=O)OC(C(=O)c2ccc(C)c(C)c2)c2ccccc2)ccc1C` (stereo not shown), for which the “hERG current change (%, negative = inhibition) at 10uM” value was -7.01%. The figure for `CS(=O)(=O)N(Cc1ccccc1)c1ccc(C(=O)NCC2CCCO2)cc1` (stereo not shown) is 0.814%; for `CC(C)CCNC(=O)CN(C(=O)CCC(=O)Nc1ccccn1)c1ccc(F)c(Cl)c1` it is 11.1%. Next, `Cl.c1ccc(COc2ccccc2CNCc2cccnc2)cc1`: -8.89%. For `COc1cc([N+](=O)[O-])cc([N+](=O)[O-])c1NC(=O)N1CCOCC1`, the “hERG current change (%, negative = inhibition) at 10uM” value worked out at 4.88%. For `O=C(Cn1cc([N+](=O)[O-])cn1)N1N=C(C(F)F)CC1(O)C(F)F` (stereo not shown), the “hERG current change (%, negative = inhibition) at 10uM” value is recorded as -4.71%. The figure for `CC(C)c1ccc2[nH]c3c(c2c1)CCC/C3=N\NC(=O)c1ccncc1` is 5.62%; for `CN1CCN(C2=C(NS(=O)(=O)c3cccs3)C(=O)c3ccccc3C2=O)CC1` it is -18.8%. The figure for `CC1(C)c2ccccc2N(CC(N)=O)C12C=Cc1ccccc1O2` (stereo not shown) is -26%; for `CCn1c(SCC(=O)N2CCc3ccccc32)nnc1-c1c[nH]c2ccccc12` it is 11.8%. For `Cc1cc(N2C(=O)C3C4CCC(C4)C3C2=O)no1` (stereo not shown), the “hERG current change (%, negative = inhibition) at 10uM” value amounted to 15.8%. Next, `Cc1nn(-c2ccc(F)cc2)c(Cl)c1/C=N/NC(=O)c1cccs1`: 10.4%.

Turning to `COc1cc2c(cc1OC)C(c1ccc(C)cc1)NC(=O)C2` (stereo not shown), the “hERG current change (%, negative = inhibition) at 10uM” value amounted to 19.9%. Next, `COc1cc2[nH]c(=O)n(CCCCCC(=O)N3CCN(c4ccccn4)CC3)c(=O)c2cc1OC`: -13.6%; `c1ccc(Sc2ncccn2)nc1`: 12.2%. Take `CC1(C)Cc2c(c(N3CCOCC3)nc3sc4c(NN)ncnc4c23)CS1`: the “hERG current change (%, negative = inhibition) at 10uM” value is reported as -5.43%. Regarding `CCCCn1c(N)c(N(CCC(C)C)C(=O)CCCc2nc3ccccc3s2)c(=O)[nH]c1=O`, the “hERG current change (%, negative = inhibition) at 10uM” value was determined as 10.2%. In the case of `CC(/C=C/c1ccco1)=N\NC(=O)c1cc(Cl)ccc1O`, the “hERG current change (%, negative = inhibition) at 10uM” value worked out at 12.1%. Next, `COc1ccc(-c2cc(C(F)(F)F)nc(-n3ccnc3C)n2)cc1`: -7.53%; `Cc1ccc(C(=O)N/C(=C\c2cccs2)C(=O)NCCc2c[nH]c3ccccc23)cc1`: -16.2%; `COCCOC(=O)C1=C(N)OC2=C(C(=O)CCC2)C1c1cccnc1` (stereo not shown): -3.23%. Regarding `COC(=O)Cn1c(N)[n+](Cc2ccccc2)c2ccccc21.[Br-]`, the “hERG current change (%, negative = inhibition) at 10uM” value is -9.48%. With `COc1cc(NC(=O)NC2Cc3ccccc3C2)cc(OC)c1`, the “hERG current change (%, negative = inhibition) at 10uM” value came to 8.22%. The figure for `CCN(CC)S(=O)(=O)c1c(OC)cc(C)c(Cl)c1C` is -12.5%; for `CCN1CCN(/C=N/c2nc(C)cs2)CC1` it is 1.97%; for `O=[N+]([O-])c1cccc(/C=N/Nc2nc(N3CCCCC3)nc(N3CCCCC3)n2)c1` it is -9.67%.

`CCCOc1c(Br)cc(/C=N/O)cc1OC`: the “hERG current change (%, negative = inhibition) at 10uM” value worked out at 1.68%. The figure for `Oc1[nH]c2ccccc2c1C1=NCCCCC1` is 2.73%. The figure for `Nc1nc(Nc2cccc(C(F)(F)F)c2)nc(C(F)(F)F)n1` is -14.1%; for `COc1ccc(CCNC(=O)c2n[nH]c(=O)c3ccccc23)cc1` it is 22%. The figure for `CNS(=O)(=O)c1ccc(NC(=O)C2CC(=O)N(c3ccc(Cl)cc3)C2)cc1` (stereo not shown) is 8.44%; for `O=C1NC(O)(c2ccccc2)Oc2ccccc21` (stereo not shown) it is 16%. For `CCOc1ccc(CNC(=O)CCS(=O)(=O)Cc2cccc(Cl)c2)cc1OC`, the “hERG current change (%, negative = inhibition) at 10uM” value was -12.1%. Next, `COc1ccc(CNC(=O)Nc2ccc(C)cc2)cc1`: 8.62%. For `COc1ccc2[nH]c(CN3CCN(CC=C(C)C)C(CCO)C3)c(C)c2c1` (stereo not shown), the “hERG current change (%, negative = inhibition) at 10uM” value is -17.1%. In the case of `CCCC(C(=O)n1nc(C)cc1C)C(NS(=O)(=O)c1ccc(C)cc1)c1ccccc1` (stereo not shown), the “hERG current change (%, negative = inhibition) at 10uM” value is given as 8.29%.
